{"source": "patent US20250144178A1", "about": "“PHARMACEUTICAL COMPOSITION FOR CANCER TREATMENT COMPRISING FUSION PROTEIN INCLUDING IL-12 AND ANTI-FAP ANTIBODY AND ANTICANCER AGENT” (KANAPH THERAPEUTICS INC., priority 2022, published 2025)", "molecules": {"B1": {"name": "T1.06: K&H: anti-hu FAP/hu IL-12, hu IgG1 DANG (2 + 1, HC scFv) (seq2, seq3, seq8) (antibody)", "heavy": "QVQLVQSGAEVKKPGASVKVSCKTSRYTFTEYTIHWVRQAPGQRLEWIGGINPNNGIPNYNQKFKGRVTITVDTSASTAYMELSSLRSEDTAVYYCARRRIAYGYDEGHAMDYWGQGTLVTVSSASTKGPSVFPLAPSSKSTSGGTAALGCLVKDYFPEPVTVSWNSGALTSGVHTFPAVLQSSGLYSLSSVVTVPSSSLGTQTYICNVNHKPSNTKVDKKVEPKSCDKTHTCPPCPAPELLGGPSVFLFPPKPKDTLMISRTPEVTCVVVAVSHEDPEVKFNWYVDGVEVHNAKTKPREEQYGSTYRVVSVLTVLHQDWLNGKEYKCKVSNKALPAPIEKTISKAKGQPREPQVYTLPPSRDELTKNQVSLWCLVKGFYPSDIAVEWESNGQPENNYKTTPPVLDSDGSFFLYSKLTVDKSRWQQGNVFSCSVMHEALHNHYTQKSLSLSPGKGGGGSGGGGSGGGGSQVQLVQSGAEVKKPGASVKVSCKTSRYTFTEYTIHWVRQAPGQRLEWIGGINPNNGIPNYNQKFKGRVTITVDTSASTAYMELSSLRSEDTAVYYCARRRIAYGYDEGHAMDYWGQGTLVTVSSGGGGSGGGGSGGGGSGGGGSDIVMTQSPDSLAVSLGERATINCKSSQSLLYSRNQKNYLAWYQQKPGQPPKLLIFWASTRESGVPDRFSGSGFGTDFTLTISSLQAEDVAVYYCQQYFSYPLTFGQGTKVEIK", "light": "DIVMTQSPDSLAVSLGERATINCKSSQSLLYSRNQKNYLAWYQQKPGQPPKLLIFWASTRESGVPDRFSGSGFGTDFTLTISSLQAEDVAVYYCQQYFSYPLTFGQGTKVEIKRTVAAPSVFIFPPSDEQLKSGTASVVCLLNNFYPREAKVQWKVDNALQSGNSQESVTEQDSKDSTYSLSSTLTLSKADYEKHKVYACEVTHQGLSSPVTKSFNRGEC", "chain": "IWELKKDVYVVELDWYPDAPGEMVVLTCDTPEEDGITWTLDQSSEVLGSGKTLTIQVKEFGDAGQYTCHKGGEVLSHSLLLLHKKEDGIWSTDILKDQKEPKNKTFLRCEAKNYSGRFTCWWLTTISTDLTFSVKSSRGSSDPQGVTCGAATLSAERVRGDNKEYEYSVECQEDSACPAAEESLPIEVMVDAVHKLKYENYTSSFFIRDIIKPDPPKNLQLKPLKNSRQVEVSWEYPDTWSTPHSYFSLTFCVQVQGKSKREKKDRVFTDKTSATVICRKNASISVRAQDRYYSSSWSEWASVPCSGGGGSGGGGSGGGGSRNLPVATPDPGMFPCLHHSQNLLRAVSNMLQKARQTLEFYPCTSEEIDHEDITKDKTSTVEACLPLELTKNESCLNSRETSFITNGSCLASRKTSFMMALCLSSIYEDLKMYQVEFKTMNAKLLMDPKRQIFLDQNMLAVIDELMQALNFNSETVPQKSSLEEPDFYKTKIKLCILLHAFRIRAVTIDRVMSYLNASGGGGSGGGGS[skipping human IgG1 Fc with changes]"}, "B2": {"name": "T1.07: K&H: anti-hu FAP/hu IL-12 mut2, hu IgG1 DANG (2 + 1, HC scFv) (seq2, seq5, seq8) (antibody)", "heavy": "QVQLVQSGAEVKKPGASVKVSCKTSRYTFTEYTIHWVRQAPGQRLEWIGGINPNNGIPNYNQKFKGRVTITVDTSASTAYMELSSLRSEDTAVYYCARRRIAYGYDEGHAMDYWGQGTLVTVSSASTKGPSVFPLAPSSKSTSGGTAALGCLVKDYFPEPVTVSWNSGALTSGVHTFPAVLQSSGLYSLSSVVTVPSSSLGTQTYICNVNHKPSNTKVDKKVEPKSCDKTHTCPPCPAPELLGGPSVFLFPPKPKDTLMISRTPEVTCVVVAVSHEDPEVKFNWYVDGVEVHNAKTKPREEQYGSTYRVVSVLTVLHQDWLNGKEYKCKVSNKALPAPIEKTISKAKGQPREPQVYTLPPSRDELTKNQVSLWCLVKGFYPSDIAVEWESNGQPENNYKTTPPVLDSDGSFFLYSKLTVDKSRWQQGNVFSCSVMHEALHNHYTQKSLSLSPGKGGGGSGGGGSGGGGSQVQLVQSGAEVKKPGASVKVSCKTSRYTFTEYTIHWVRQAPGQRLEWIGGINPNNGIPNYNQKFKGRVTITVDTSASTAYMELSSLRSEDTAVYYCARRRIAYGYDEGHAMDYWGQGTLVTVSSGGGGSGGGGSGGGGSGGGGSDIVMTQSPDSLAVSLGERATINCKSSQSLLYSRNQKNYLAWYQQKPGQPPKLLIFWASTRESGVPDRFSGSGFGTDFTLTISSLQAEDVAVYYCQQYFSYPLTFGQGTKVEIK", "light": "DIVMTQSPDSLAVSLGERATINCKSSQSLLYSRNQKNYLAWYQQKPGQPPKLLIFWASTRESGVPDRFSGSGFGTDFTLTISSLQAEDVAVYYCQQYFSYPLTFGQGTKVEIKRTVAAPSVFIFPPSDEQLKSGTASVVCLLNNFYPREAKVQWKVDNALQSGNSQESVTEQDSKDSTYSLSSTLTLSKADYEKHKVYACEVTHQGLSSPVTKSFNRGEC", "chain": "IWELKKDVYVVELDWYPDAPGEMVVLTCDTPEEDGITWTLDQSSEVLGSGKTLTIQVKEFGDAGQYTCHKGGEVLSHSLLLLHKKEDGIWSTDILKDQKEPKNKTFLRCEAKNYSGRFTCWWLTTISTDLTFSVKSSRGSSDPQGVTCGAATLSAERVRGDNKEYEYSVECQEDSACPAAEESLPIEVMVDAVHKLKYENYTSSFFIRDIIKPDPPKNLQLKPLKNSRQVEVSWEYPDTWSTPHSYFSLTFCVQVQGASAREAADRVFTDKTSATVICRKNASISVRAQDRYYSSSWSEWASVPCSGGGGSGGGGSGGGGSRNLPVATPDPGMFPCLHHSQNLLRAVSNMLQKARQTLEFYPCTSEEIDHEDITKDKTSTVEACLPLELTKNESCLNSRETSFITNGSCLASRKTSFMMALCLSSIYEDLKMYQVEFKTMNAKLLMDPKRQIFLDQNMLAVIDELMQALNFNSETVPQKSSLEEPDFYKTKIKLCILLHAFRIRAVTIDRVMSYLNASGGGGSGGGGS[skipping human IgG1 Fc with changes]"}}, "molecular_target": "T1, recombinant human FAP (Homo sapiens, UniProt Q12884)", "T1 sequence (Q12884 1-760)": "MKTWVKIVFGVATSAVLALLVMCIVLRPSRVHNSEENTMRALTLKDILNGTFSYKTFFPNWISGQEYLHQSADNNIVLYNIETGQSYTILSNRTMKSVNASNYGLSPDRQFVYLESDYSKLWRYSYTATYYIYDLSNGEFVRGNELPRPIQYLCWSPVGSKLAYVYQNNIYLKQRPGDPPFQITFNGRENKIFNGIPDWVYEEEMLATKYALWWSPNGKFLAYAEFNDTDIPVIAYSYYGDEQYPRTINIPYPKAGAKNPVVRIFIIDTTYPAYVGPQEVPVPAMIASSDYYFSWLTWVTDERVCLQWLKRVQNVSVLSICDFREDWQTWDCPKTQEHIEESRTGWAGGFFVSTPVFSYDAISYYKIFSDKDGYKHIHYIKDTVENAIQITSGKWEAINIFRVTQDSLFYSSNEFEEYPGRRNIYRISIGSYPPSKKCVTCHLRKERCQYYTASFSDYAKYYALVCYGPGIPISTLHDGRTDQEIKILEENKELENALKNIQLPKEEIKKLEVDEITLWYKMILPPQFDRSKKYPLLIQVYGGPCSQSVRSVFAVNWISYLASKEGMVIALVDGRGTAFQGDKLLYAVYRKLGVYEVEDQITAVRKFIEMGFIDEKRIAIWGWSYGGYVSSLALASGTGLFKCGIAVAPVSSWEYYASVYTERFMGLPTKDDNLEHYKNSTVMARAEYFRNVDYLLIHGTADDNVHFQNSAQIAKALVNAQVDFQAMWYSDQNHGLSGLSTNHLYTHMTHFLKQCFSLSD", "test": "Surface plasmon resonance binding to recombinant human FAP", "settings": "SPR, 1:1 binding model, protein captured by anti-human IgG (Fc), analyte human FAP", "method": "Specifically, the surface of the CM5 chip was activated with a 1:1 mixture of […] NHS (N-hydroxysuccinimide) and […] EDC (1-Ethyl-3-(3-dimethylaminopropyl) carbodiimide), and 25 μg/ml of anti-human IgG (Fc) antibody was immobilized for 400 seconds at a rate of 10 μl/min. The remaining active ester groups were blocked with 1 M ethanolamine. T1.01, T1.02 and T1.03 were diluted to 2 μg/ml and reacted on the CM5 chip immobilized with the anti-human IgG (Fc) antibody. The recombinant human FAP was diluted to 200 nM in 1×HBS-EP+buffer solution and diluted by serial dilution. The diluted recombinant human FAP was reacted at a rate of 30 μl/min. The association and dissociation times were 180 seconds and 400 seconds, respectively. After the dissociation, stabilization was performed for 60 seconds, and then a regeneration was performed for 30 seconds with a 10 mM glycine pH 1.5 solution at a rate of 30 μl/min.\nBindings of T1.04, T1.05, T1.06, T1.07, T1.08, T1.09, T1.10 and T1.11 to recombinant human […] were identified by surface plasmon resonance (SPR). The surface of the CM5 chip was activated with a 1:1 mixture of […] (N-hydroxysuccinimide) and […] (1-Ethyl-3-(3-dimethylaminopropyl) carbodiimide), and 25 μg/ml of anti-human IgG (Fc) antibody was immobilized for 400 seconds at a rate of 10 μl/min. The remaining active ester groups were blocked with 1 M ethanolamine.\nSpecifically, human proteins T1.04, T1.05, T1.06, T1.07, T1.08, T1.09, T1.10 and T1.11 were diluted to 1 μg/ml, 1 μg/ml, 1 μg/ml, 1 μg/ml, 0.5 μg/ml, 0.5 μg/ml, 0.5 μg/ml, and 1 μg/ml, respectively, and reacted on a CM5 chip immobilized with an anti-human IgG (Fc) antibody. The recombinant human FAP was diluted to 25 nM or 50 nM in 1×HBS-EP+buffer solution and diluted by serial dilution. The diluted recombinant human FAP was reacted at a rate of 30 μl/min. The association and dissociation times were 180 seconds and 400 seconds, respectively. After the dissociation, stabilization was performed for 60 seconds, and then a regeneration was performed for 30 seconds with a 10 mM glycine pH 1.5 solution at a rate of 30 μl/min."}
{"molecule": "B1", "values": [{"measurement": "ka", "value": 104000, "unit": "M⁻¹ s⁻¹"}, {"measurement": "kd", "value": "6.22e-05", "unit": "s⁻¹"}]}
{"molecule": "B2", "values": [{"measurement": "ka", "value": 597000, "unit": "M⁻¹ s⁻¹"}, {"measurement": "kd", "value": "7.64e-05", "unit": "s⁻¹"}]}
